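Method: 48-hour compound exposure of cells in 96-well plates, five concentrations, linear interpolation of endpoints. GI50 = concentration required for 50% inhibition of growth. TGI marks complete inhibition of growth.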

In this assay the test system is NCI-H322M lung. As to the kind of experiment: growth of human tumour cells (NCI), 48 h.
Consider `O=C(Nc1ccc(Cl)cc1)NS(=O)(=O)c1coc2ccccc2c1=O`, for which the TGI is more than 10 µM.

As to `COc1ccc2oc(=Nc3ccccc3)c(C(N)=O)cc2c1`, the TGI was more than 100 µM.

As to `Cc1ccc(S(=O)(=O)N2c3ccccc3[C@H]3CCc4c([nH]c5ccccc45)[C@H]32)cc1`, the TGI is more than 100 µM.

With `CC(C)N(C(=O)C1(C)CC1)C(C)C`, the TGI is more than 100 µM.

In the case of `O=C1c2sc(-c3ccc(F)cc3)cc2-n2cccc21`, the TGI is more than 100 µM.

The compound `O=C(NCCO)c1cc2c(cn1)[nH]c1ccccc12` registered a TGI of more than 100 µM.

The compound `COc1ccc2c(c1O)C(=O)C(CCC(=O)O)CC2` (stereo unspecified) registered a TGI of more than 100 µM.

Compound `O=c1oc2ccccc2n1P(=O)(n1c(=O)oc2ccccc21)n1c(=O)oc2ccccc21` had a TGI of more than 100 µM.

`Cc1ccccc1N=CN(C)C` yielded a TGI of more than 100 µM.

The compound `CCCOc1ccc(-c2nc(-c3ccc(N=Cc4ccc(N(CCOS(C)(=O)=O)CCOS(C)(=O)=O)cc4C)cc3)cs2)cc1` yielded a TGI of 38 µM.

For `COc1cc(-c2nc(NC(C)=O)sc2-c2ccnc(NCCNS(=O)(=O)c3ccccc3)n2)ccc1Cl`, the GI50 is 6.57 µM and the TGI is more than 100 µM.

Regarding `C=CCCCn1ccc2ccccc21`, the TGI was more than 100 µM.

Regarding `CCOC(=O)C(Cc1c[nH]c2ccc([N+](=O)[O-])cc12)(NC(C)=O)C(=O)OCC`, the GI50 was more than 1000 µM and the TGI was more than 1000 µM.

On to `C=C1C(=O)OC2/C=C(\C)C3OC3/C=C(/C(=O)OC)C(O)C(OC(=O)C3(C)OC3C)C12` (stereo unspecified), for which the TGI worked out at 23.8 µM.

`O=c1cc(-c2ccccc2)oc2cc(OCC(O)COc3ccc4c(=O)cc(-c5ccccc5)oc4c3)ccc12` came in with a TGI of more than 100 µM.

In the case of `COc1ccccc1-c1cc(/C=C2\C(=O)Nc3ncc(Br)cc32)cc(Br)c1O`, the GI50 was 18.7 µM and the TGI was more than 25 µM.

In the case of `Cc1nnc2sc(Cl)nn12`, the TGI stood at 11.1 µM.

On to `COC(=O)[C@H]1C(=O)[C@@]2(C)[C@H]([C@H](OC(=O)c3ccccc3)[C@]3(O)C[C@H](OC(=O)[C@H](O)[C@@H](NC(=O)c4ccc(F)cc4)c4ccccc4)C(C)=C1C3(C)C)[C@]1(OC(C)=O)CO[C@@H]1C[C@@H]2O`, for which the GI50 was 0.0172 µM and the TGI stood at 24.4 µM.

Consider `Cn1cc(-c2csc(-c3cn(C)c4ccc(Br)cc34)n2)c2cnccc21`, for which the GI50 is 1.77 µM and the TGI is 3.18 µM.

Regarding `COc1ccc(CC2c3cc(OC)c(OC)c(OC)c3CC[N+]2(C)C)cc1Oc1ccc(CC2c3cc4c(c(OC)c3CC[N+]2(C)C)OCO4)cc1` (stereo unspecified), the TGI is more than 100 µM.

The compound `CC(C)OC(=O)Nc1cccc(Cl)c1` registered a TGI of more than 100 µM.

`C=C[C@]1(O)CCC[C@]2(C)C(=O)CCC12C` (stereo partly specified) returned a TGI of more than 100 µM.

Take `CCN(CC)CC.CCOc1ccc(NC(=O)N=C=[N-])cc1.[CH-]1CCCCC1.[CH-]1CCCCC1.[CH-]1CCCCC1.[Cl-].[Sn+4]`: the GI50 is 0.0492 µM and the TGI stood at 0.16 µM.

For `CN(C)C(=S)N1C(=S)N(c2ccccc2)C(=Nc2ccccc2)C1=Nc1ccccc1`, the TGI is more than 100 µM.

In turn, `COc1cc(C2SCC(=O)N2Cc2ccccc2)cc(OC)c1OC` (stereo unspecified) came in with a TGI of more than 100 µM.

Consider `O=Nc1ccc(O)c2ccccc12`, for which the GI50 is 12.3 µM and the TGI amounted to 26.7 µM.

The compound `[O-]c1c[n+](CCCC[n+]2cc([O-])on2)no1` came in with a TGI of more than 100 µM.

For the compound `COC(=O)[C@@]1(Cc2ccccc2)[C@H]2c3cc(C(=O)N4CCCC4)n(Cc4ccc(OC)c(OC)c4)c3C[C@H]2CN1C(=O)c1ccccc1`, the GI50 was 14.6 µM and the TGI is more than 50 µM.

`C/C(=C/c1ccccc1)CN(C(=O)/C=C\Sc1ccccc1)C(C)(C)C` had a TGI of more than 100 µM.

`O=C(/C=C/c1ccc(O)c(O)c1)OC1C[C@@](O)(C(=O)O)C[C@@H](O)[C@H]1OC(=O)/C=C/c1ccc(O)c(O)c1` (stereo partly specified) registered a TGI of more than 100 µM.

As for `C#CCSc1n[nH]c(-c2ccco2)n1`, the TGI is more than 100 µM.

Take `O=c1[nH]c(=O)n(C2OC(CO)C(O)C2O)c2ncc(-c3ccc(-c4ccccc4)cc3)nc12` (stereo unspecified): the TGI is more than 20 µM.

In turn, `Cc1ccc2nc(N/N=C/c3ccc(C)s3)cc(C)c2c1` showed a TGI of 17.2 µM.
